The structures appear in SMILES notation.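 Cultured in 96-well plates, cells were exposed to test compound for 48 hours across five concentrations. GI50 marks 50% less growth.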 Activity calls are given as the source filed them. No stated cut-off is given here; in the data, active = GI50 up to about 1.1 µM and inactive = higher.

The values below come from ChEMBL document CHEMBL1201862, “PubChem BioAssay data set” (2004).

The assay deals with NCI-H322M. As to the kind of experiment: DTP human tumour cell line panel, 48 h.
Take `COc1cc(C=C2C(=O)NC(=O)NC2=O)cc(OC)c1OC`: the GI50 (as a rule, the concentration at which growth is held to half of that of the control) is inactive: > 100 µM. Under `Nc1ncnc2c1ncn2CC(O)CO` (stereo unspecified) stands inactive: > 100 µM; under `COc1cc2c3cc1Oc1c(OC)c(OC)cc4c1C(Cc1ccc(O)c(c1)Oc1ccc(cc1)CC3N(C)CC2)N(C)CC4` (stereo unspecified), inactive: 54.3 µM.

For `Cc1cc(C)c(C(=O)O)c(SSc2cc(C)cc(C)c2C(=O)O)c1`, the GI50 was inactive: > 100 µM.

With `O=C1/C(=C/c2cccnc2)SC(=S)N1Cc1ccco1`, the GI50 is inactive: 29.4 µM. The same measure for `c1cncc(CNc2ncn[nH]2)c1`: inactive: > 100 µM; for `COc1ccc2c(Cl)cc(NC(=S)Nc3ccccc3)nc2c1`: inactive: 32 µM. The same measure for `N=C(N)N/N=C(/c1ccccc1)c1ccc(O)cc1O`: inactive: 32.4 µM; for `CN(Cc1cc(C(C)(C)C)cc(Br)c1O)Cc1cc(C(C)(C)C)cc(Br)c1O`: inactive: 5.5 µM. Under `CC1=Nn2c(nc3sc4c(c3c2=O)CCCC4)SC1` stands inactive: > 100 µM; under `COc1cc2c(cc1OC)C1Cc3cc(OC)c(OC)cc3C(C2)N1C`, inactive: > 75 µM; under `Cc1nc(C)c(Cc2ccccc2)o1`, inactive: > 100 µM. For `O=c1[nH]c(S)nc2c1sc(=S)n2-c1ccccc1`, the GI50 is inactive: > 100 µM. Take `Nn1c(Cc2ccccc2)n[nH]c1=O`: the GI50 is inactive: > 100 µM.

Take `CCCCCCCCCCC(O)C1CCC(C(O)CCC(O)C2CCC(CCCCCCC[C@H](O)CC3=C[C@@H](C)OC3=O)O2)O1` (stereo partly specified): the GI50 is inactive: > 100 µM. Under `CC12C3CC4C5CC(C(C53)[C@@H]1NCc1ccccc1)C42` (stereo partly specified) stands inactive: > 100 µM; under `C[C@@H](c1ccccc1)N(CC#N)[C@H]1CCC[C@]1(O)/C=C/c1ccc2c(c1)OCO2`, inactive: > 25 µM; under `CCOP(=O)(OCC)C(Nc1ccc(Cl)cc1)c1ccc(F)cc1` (stereo unspecified), inactive: 27.8 µM. As for `O=C1C2=C(CC3C(C2)C3(Br)Br)C(=O)C2=C1CC1C(C2)C1(Br)Br` (stereo unspecified), the GI50 is inactive: > 100 µM. Consider `CCOC(=O)/C=C(/C(=O)OCC)n1ccc(=O)n(Cc2cn(CCCCOC(C)=O)nn2)c1=O`, for which the GI50 was inactive: > 100 µM. As for `CC1NOC(=O)C1/N=N/c1ccc(Cl)cc1Cl` (stereo unspecified), the GI50 is inactive: 28.6 µM. The same measure for `COC(=O)C(C)(NC(=O)C(CC(=O)OC(C)(C)C)NC(=O)OC(C)(C)C)c1ccccc1` (stereo unspecified): inactive: > 100 µM; for `O=C(Nc1ccc(Cl)cc1)c1cc2cc(/N=N/c3ccccc3Cl)ccc2oc1=O`: inactive: 11 µM. Under `O=C(Nc1nnc(-c2ccc(Cl)cc2)o1)C(SC(=S)N1CCCCC1)c1ccccc1` (stereo unspecified) stands inactive: 20.7 µM; under `Cc1ccc(S(=O)(=O)NNS(C)(=O)=O)cc1`, inactive: > 100 µM. As for `COC(=O)C1(SC)C2CCC3C2CCC31` (stereo unspecified), the GI50 was inactive: > 100 µM. Under `N#CSc1[nH]cnc1C(N)=O` stands inactive: > 100 µM. The same measure for `OC1c2ccccc2C(O)C2OC12` (stereo unspecified): inactive: > 100 µM; for `O=C1C(c2ccccc2)=[N+]([O-])c2ccc(Cl)cc21`: inactive: > 100 µM; for `COC(=O)C1=C(C)N(NC(N)=O)C(C)(O)C12CCOC2=O` (stereo unspecified): inactive: > 100 µM. `CSc1cnc2ccccc2c1Sc1c[nH]c2ccccc2c1=O`: the GI50 was inactive: 15.8 µM. Under `COc1ccc2[nH]c3c4c(cc(-c5ccccc5)c3c2c1)C(=O)N(c1ccccc1)C4=O` stands inactive: > 58.3 µM; under `Cn1cc(C2(C)CC(C)(C)c3c2n(C)c2ccccc32)c2ccccc21` (stereo unspecified), inactive: > 100 µM; under `S=c1nc(N2CCCCC2)c2cn[nH]c2[nH]1`, inactive: 74.5 µM. Regarding `O=[N+]([O-])c1ccc2nc(O)n[n+]([O-])c2c1`, the GI50 was inactive: > 100 µM. Take `CCOC(=O)NC(=O)c1cn(CCCCCCCCCCC(=O)NCCCN2CCN(CCCNC(=O)CCCCCCCCCCn3cc(C(=O)NC(=O)OCC)c(=O)[nH]c3=O)CC2)c(=O)[nH]c1=O`: the GI50 was inactive: > 100 µM. Under `N#CC1(C#N)C2(c3ccccc3)OC(c3ccccc3)(c3cc4ccccc4cc32)C1(C#N)C#N` stands inactive: 15.5 µM; under `NC(=O)N/N=C(\Cc1cc(=O)oc2cc(O)ccc12)C(=O)Nc1ccccc1C(N)=O`, inactive: > 100 µM. The same measure for `CCOC(=O)c1c(Br)c(-c2ccc([N+](=O)[O-])cc2)c(Br)n1C`: inactive: > 10 µM. Under `COc1ccc(-n2c(=O)[nH]n(C(C)=O)c2=O)cc1` stands inactive: > 100 µM. Regarding `COc1ccc(N2C(=O)C3c4[nH]c5ccccc5c4C4CCCCCCC4C3C2=O)cc1` (stereo unspecified), the GI50 was inactive: 19.8 µM.

Consider `O=C1C(NS(=O)(=O)c2ccccc2)=C(n2cnc3ccccc32)C(=O)c2ccccc21`, for which the GI50 was inactive: > 100 µM. The same measure for `CC(=O)O[C@@H]1C2=C(C)C=C(O2)[C@H]2O[C@]2(C)C[C@H]2C=C(C(=O)O2)[C@H](OC(C)=O)CC1[C@@]1(C)CO1` (stereo partly specified): inactive: > 100 µM; for `COc1cc2c(c(OC)c1)C(=O)C(=O)C(CC1(C)OCCCO1)=C2`: inactive: 14.6 µM. The same measure for `Fc1ccc(C2NC(=S)NC3=C2CCOc2c3ccc3ccccc23)cc1` (stereo unspecified): inactive: > 100 µM.

`CCOC(=O)C1=C(C)Nc2ccccc2S1`: the GI50 was inactive: > 100 µM. The same measure for `COC(=O)/C=C(/C(=O)OC)c1cc2ccc3c([nH]c4ccccc43)c(C)c-2c1`: inactive: 12.1 µM; for `CN1C(=O)C(=CN)C(=O)N(C)C1=O`: inactive: > 100 µM; for `Cc1cc2ccccc2oc(=O)/c1=N\Nc1ccccc1`: inactive: > 100 µM. The same measure for `CC(C)COP(C)(=O)C(N)(C(F)(F)F)C(F)(F)F` (stereo unspecified): inactive: > 100 µM.

In the case of `O=C1CC(NC(=O)C(F)(F)F)c2c(Br)sc(N3CCNCC3)c21` (stereo unspecified), the GI50 is inactive: > 100 µM.

For `Nc1nc(N)c2c(n1)NC(c1ccccc1)CC(/C=C/c1ccc(Cl)cc1)=N2` (stereo unspecified), the GI50 is inactive: 14.6 µM. The same measure for `O=[N+]([O-])/C(Cl)=C/C(=C1/Nc2ccccc2O1)[N+](=O)[O-]`: inactive: 16 µM; for `O=C(CSc1c2ccccc2nc2ccccc12)Nc1ccccc1-c1ccccc1NC(=O)CSc1c2ccccc2nc2ccccc12`: inactive: 32.7 µM; for `[O-][S+](Nc1ccccc1)c1ccc(Cl)c(Cl)c1` (stereo unspecified): inactive: 50.2 µM. The same measure for `CC(=O)Oc1c2ccsc2c(OC(C)=O)c2ccsc12`: inactive: 1.15 µM.

Regarding `CNc1ccc(Cl)cc1C(=O)N1CCC[C@H]1CO`, the GI50 was inactive: > 100 µM. Under `O=C(/N=N/c1cc(Cl)ccc1Cl)NNc1cc(Cl)ccc1Cl` stands inactive: 27.4 µM. Under `CC(=O)NNc1nc(C)c(C(=O)NNC(=O)C(=O)Nc2c(Cl)cc([N+](=O)[O-])cc2Cl)s1` stands inactive: 47.1 µM. The same measure for `COC(=O)[C@@H]1CN(C(C)=O)C(=O)N1`: inactive: > 100 µM; for `Cc1ccccc1/C=C/c1csnn1`: inactive: > 100 µM; for `COc1ccc2c(c1)/C(=C\c1c(-c3ccccc3)nc3n1CCS3)C(=O)N2`: inactive: 16.1 µM. As to `O=C(O)CO[C@@]12C#C/C=C\C#C[C@@H]3N(C(=O)Oc4ccccc4)c4ccccc4[C@]14O[C@@]34CCC2`, the GI50 is inactive: 82.8 µM.

`Oc1ccc2ccccc2c1/C=N/Cc1c(O)ccc2ccccc12`: the GI50 is inactive: > 100 µM. Under `O=C(Nc1cccc(C(F)(F)F)c1)C(=O)C1NC(=S)NC1=O` (stereo unspecified) stands inactive: > 100 µM.

With `CCCCCCCCCCCCCC(=O)OCC1OC(=O)CC1O` (stereo unspecified), the GI50 is inactive: > 100 µM.

With `COC(=O)c1[nH]c(=S)[nH]c(=O)c1-c1ccc(Cl)cc1`, the GI50 is inactive: > 50 µM.

On to `CC(C)(C)OC(=O)NCCC(N)=S`, for which the GI50 is inactive: > 100 µM. The same measure for `O=C1NC(=O)C2C1N(Cc1ccccc1)C(=O)N2Cc1ccccc1` (stereo unspecified): inactive: > 100 µM; for `CCOC(=O)C(=CNc1ccc(NC2=NCC(C)S2)cc1)C(=O)OCC` (stereo unspecified): inactive: 59.4 µM; for `CN1CCC/C1=N\C#N`: inactive: > 100 µM.

For the compound `CCN(CC)CCC1CCCCN1CC(=O)N1c2cc(Cl)ccc2NC(=O)CC1C` (stereo unspecified), the GI50 is inactive: > 100 µM. Consider `CN1CCN(c2ncc3c(n2)sc2c(=O)n(-c4ccccc4)cnc23)CC1`, for which the GI50 is inactive: > 100 µM. The same measure for `NC(=S)N/N=c1\cc(C(=O)Nc2ccc([N+](=O)[O-])cc2[N+](=O)[O-])oc2ccccc12`: inactive: > 100 µM; for `COC(=O)[C@@]12CCCC(=O)[C@@H]1[C@H]1CCC[C@H]12`: inactive: > 100 µM; for `COc1cc(C(C#N)NNC(=O)c2ccccc2O)ccc1O` (stereo unspecified): inactive: 3.95 µM.

With `N#Cc1c2nc3ccccc3nc2n2ccccc12`, the GI50 is inactive: > 100 µM. Under `NC(CCCCCCCCCCP(=O)(O)O)C(=O)O` (stereo unspecified) stands inactive: > 100 µM; under `Cc1ccc(C(=O)Nc2ccc(CP(=O)(O)O)cc2CP(=O)(O)O)cc1N`, inactive: > 100 µM. `N#C/C(=C\c1ccc(O)cc1O)C(N)=O`: the GI50 is inactive: 43.4 µM. The same measure for `Cc1cc(/N=C/c2c(CO)cnc(C)c2O)c(/N=C/c2c(CO)cnc(C)c2O)cc1C.[Zn+2]`: inactive: > 100 µM. Under `COc1cc(C2c3cc4c(cc3[C@@H](Nc3cnc5ccccc5c3)C3COC(=O)[C@H]23)OCO4)cc(OC)c1O` (stereo partly specified) stands inactive: 3.4 µM; under `COc1cc(C2c3cc4c(cc3[C@@H](Oc3ccc(F)cc3)C3COC(=O)[C@H]23)OCO4)cc(OC)c1O` (stereo partly specified), inactive: > 41.3 µM; under `[N-]=[N+]=NC(CI)c1cn([C@H]2C[C@H](O)[C@@H](CO)O2)c(=O)[nH]c1=O` (stereo partly specified), inactive: > 100 µM. The same measure for `O=C1c2scc(-c3ccccc3)c2-n2cccc21`: inactive: 21.4 µM. For the compound `COc1cc(/C=C(\C#N)C(N)=C(C#N)C#N)cc(O)c1O`, the GI50 was inactive: > 82 µM.
